The list shows a part of the results. At the low end of the ranking, values are background and their order means little. Measured with an extract: partners may take part in the binding.

The record followed here is publication PMC10726135.

For the assay, the target named is T1, HNF4alpha8 (COS-7 nuclear extract) (UniProt P41235-5).
T1 sequence: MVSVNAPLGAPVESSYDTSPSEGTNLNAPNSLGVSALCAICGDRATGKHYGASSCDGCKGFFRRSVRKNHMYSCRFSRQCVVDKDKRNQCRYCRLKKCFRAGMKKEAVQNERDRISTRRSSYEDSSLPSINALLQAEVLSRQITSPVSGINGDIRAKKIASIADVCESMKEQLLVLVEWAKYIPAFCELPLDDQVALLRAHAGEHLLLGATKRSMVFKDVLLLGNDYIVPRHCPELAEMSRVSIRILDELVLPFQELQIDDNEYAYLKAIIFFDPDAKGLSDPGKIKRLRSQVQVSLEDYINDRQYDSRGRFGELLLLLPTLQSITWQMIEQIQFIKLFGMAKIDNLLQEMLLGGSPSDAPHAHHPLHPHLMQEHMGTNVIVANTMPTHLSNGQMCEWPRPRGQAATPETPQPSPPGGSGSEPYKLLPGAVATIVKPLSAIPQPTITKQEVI
The assay can be described thus: protein-binding microarray. To be noted: COS-7 nuclear extract on double-stranded Agilent 4x180k PBM; binding buffer, salt, pH and temperature not given; high values mean tight binding; double strand, one strand shown; sequences stand for … in …GCCTAGGGAGATTAGAGTATCGGTCGA
Consider GCAGGAGCCACCTGTCACTCAATGCAGCAG, for which the binding signal (log2 normalized intensity) was -1.34.
CAATGCCCCAGAAAGCCAGCAGGGGCTGCT: the binding signal (log2 normalized intensity) is -1.22.
The figure for CTGGGACCCACCCACCTATGTCCTTATCCT is 1.44; for GCTTTCTTCCAAGGCTGCAAGCAAACCTGC it is -1.37.
For the sequence TCATGAGCATGCTTCCCAAATGGAGTGCCC, the binding signal (log2 normalized intensity) was 1.64.
As for CACCAGCATGGTGATGCTAGCTACTACATG, the binding signal (log2 normalized intensity) is -1.39.
Consider CAACTTCCCCAACCCTTGCACTGCTGGTTT, for which the binding signal (log2 normalized intensity) amounted to 1.55.
The figure for GAGTTTCTGCAGTTCTGGGCCAAAGGTCAT is 7.29; for CTGAAGTCAATGTCAGCTAGAGGCCCTGCA it is -1.34; for ATGACCTCTTTTAGTAACTGACTTTAACTT it is 1.03.
In the case of GGTAAGCCACTGAACTTTCACTGCCTATCT, the binding signal (log2 normalized intensity) is -0.69.
Turning to TGTTCCTCCAGACACGGGGATAACACCTGC, the binding signal (log2 normalized intensity) is -1.19.
Take CAGTGAGGATGTGTGCTCGAGGTGGACTTT: the binding signal (log2 normalized intensity) was found to be 7.48.
In the case of ACATTTATTGTGAGATTACGTAAGTGAAAG it was 1.29; in that of TCCAAAGTTCAAACTCTGAAAGCACTAAGT, 2.09; in that of AGTGGCACTCTCTGGGTTAAACGTGCAGCA, 0.255.
As to CCTAGCACTTCCCGAGTGAGGCAATGCCTC, the binding signal (log2 normalized intensity) is -1.25.
For GCACAATCAGCAAACACAGATAGCATAATC, the binding signal (log2 normalized intensity) is -1.29.
The figure for TTCCATGTTTGTCTTTGCATTGCTCAATTT is 1.35; for GCCATTGACGGTATGTGAATGCCTGGGCAT it is 0.108.
GCTTCACAGCCCTCCAACTATGCTAAGAAT: the binding signal (log2 normalized intensity) was -0.587.
As for CCAGCGGGTCATTAATTCCCAGGAATTGGC, the binding signal (log2 normalized intensity) was -1.13.
In the case of AAGTCTGAGATGAAGAGGCCAGGGGCACTC it was -1.39; in that of AAACACACTTGCTCTAATCCTTTAAAAAAA, -1.4; in that of AGATAAATGGTGTAGAGGCCAGAGGTCGTG, 2.91.
In the case of AATGTGCCCTTTGACCTCTCTCTCCTAACT, the binding signal (log2 normalized intensity) turned out to be 7.21.
As for GCCTTGGAAAACCCGGCGCGGACATAAAAT, the binding signal (log2 normalized intensity) was -1.26.
Regarding TGCGTCCCCAGGTGAACTCAGTCCTTTCAG, the binding signal (log2 normalized intensity) is 1.34.
Take TCATTTTCTTATCTCACACAGTACTTTGTA: the binding signal (log2 normalized intensity) is 2.35.
In the case of GAGGCCTCATTGGCCAGTATCCGCCTTCAC it was -1.26; in that of AGCTGAAGTTTGCAAACAGTAAAGAACAAA, -0.964; in that of TCCCACTTCAGCCTCCCGAGTAGTTGGGTC, 1.21.
The figure for TGGTTAGTTCCAAAGGACAAATCTCACTGA is 1.09; for ACAGCCTTGTTTACAACGCTGTTGTCTGTG it is 0.502.
As to ATTCAACTTTGACTTCCATTGTGTTGCAGA, the binding signal (log2 normalized intensity) was determined as 1.02.
Take TAGGGGCCGCATTGATGTTAGAATACAAGT: the binding signal (log2 normalized intensity) turned out to be 0.508.
In the case of CAGAGCTAATGTTCAAATCCAGACACTTTG it was -0.461.
Regarding TTCTTCCAGTTGTGTGCACAAGAGGGTGGG, the binding signal (log2 normalized intensity) is -0.441.
Take GTCAAAAGGTGTATGTGGACTTTCAACTGC: the binding signal (log2 normalized intensity) is 6.13.
Consider TTGTACACATTCCTTTGGATCATGTGTCTG, for which the binding signal (log2 normalized intensity) turned out to be 1.95.
With CGTAATACAAAGGCAGCCATTGACGGTATG, the binding signal (log2 normalized intensity) was -0.923.
Regarding TGGGTTGAGGCTAAGAGGTGAACACATTCC, the binding signal (log2 normalized intensity) is -0.969.
With CTTTTTGGCCTTTGGCTGTTCGATGTATAC, the binding signal (log2 normalized intensity) came out at 2.53.
As for CCCCACATTCCAACACAGGGTCAATGTCCC, the binding signal (log2 normalized intensity) stood at 3.76.
In the case of TTTTTTGCTTAGATGGTTTAAAGAATTCTG it was 0.568.
For TTTACTTATCATAAGTCAGCCTGGCTGAAG, the binding signal (log2 normalized intensity) was determined as 1.53.
As to TTGATGTGAGGGTAGGAGCCTAGCTTCCTT, the binding signal (log2 normalized intensity) was -0.444.
In the case of TTCCTCAACTCTAGGAGCATGTCAAAAGCT it was -1.27.
For AGGGCAGCATAATCACATACAGGCCAGCTG, the binding signal (log2 normalized intensity) was -1.54.
As to TGTTCGCAGACCTGCCAAAGTGTACCCTGT, the binding signal (log2 normalized intensity) is 3.49.
Consider GGTCCTGCCATTAAACACCTTATTTGGTCA, for which the binding signal (log2 normalized intensity) is 1.34.
For TAATCATATCTGCCTCAGTAGTAGTGAAAA, the binding signal (log2 normalized intensity) worked out at 1.63.
For AGAATGAGCCTCTTCTTTAATAAGAAAAGG, the binding signal (log2 normalized intensity) is -1.33.
The figure for CCAAAAAGCATAACTGTATAACCTGGAACT is -0.938.
In the case of ACCTACACCTATGTGGTCAAAACTTTGTTT it was 1.36; in that of TTTATCAGTGATTTCTCTTCCATCTCAGCT, -1.37; in that of CAAAGGTCAGATGACAGAATTGGTCCTGGA, 2.85.
The figure for AAAGCTCACAGATGTGGAATGAAACCAGTT is 0.297; for CGGAGCGCCGAGCAGGCACCCCGGGAGCGC it is -1.38.
For TTTTCATCTGATCAGTGCCCATCTGGTGGT, the binding signal (log2 normalized intensity) is 1.18.
Regarding AGAAAGAAAAAGTACACACCTGCAACCTAT, the binding signal (log2 normalized intensity) is -1.17.
With CTCCAACTGCTCCTCTTCAACTGATTCTTG, the binding signal (log2 normalized intensity) is -0.845.
In the case of CCGGGGAGATACTGTAAACCAGCAGTATCT it was -1.23; in that of AACTGGACTAGACAGGCTTGTCGAGGACAG, -1.36; in that of AGCTTCTCTTTCTAGGTCACCACCTTTTTT, 1.54.
The figure for GGAGCAGCATGGCCCTTTGCAGCCCGAGCT is -1.22.
GTTAAGTGAGTGGACTTTGGTCCTGGTCAG: the binding signal (log2 normalized intensity) was 7.53.
The figure for AAAAAACCTGTTCAGCCAGATTCTCTCACT is -1.33.
In the case of TCCACAGATAAGGAGGAGACAGACTTATCG it was -1.32; in that of CTTTGCCCGGATTCCAGCAACTTCCTCTTG, -1.38.
Consider GCCATGGACTGCTGACCTTTGAACCCTGAG, for which the binding signal (log2 normalized intensity) came out at 10.3.
In the case of CACCACTAGGAAACTGACCTTTGCTCATGA it was 7.58.
